Measured values published in PubChem BioAssay AID360 (National Center for Advancing Translational Sciences (NCATS), 2006).
Among all 48,000 compounds or so, about 550 (1.1%) were called active. Inconclusive means that the source gave no clear call. Such entries were picked first, then a sample of the others. No stated cut-off is given here; in the data, active means potency below about 15 µM; inconclusive means mostly about 16 µM to 33 µM; inactive means weaker than that. Potencies of inconclusive entries are left out as doubtful fits.

target: Lysosomal acid glucosylceramidase (Homo sapiens) (UniProt P04062); assay: Glucocerebrosidase; conditions: purified enzyme, resorufin glucoside fluorescence (screen aimed at inhibitors), 20 min;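 further: the screen sought inhibitors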
Outline: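 Normal human glucocerebrosidase (0.2 nM final) was assayed with resorufin β-D-glucopyranoside (30 uM final) in 50mM citric acid/KH2PO4, 10mM sodium taurocholate, 0.01% tween-20, pH 5.9. Compounds were titrated; fluorescence (Ex 548, Em 600) read after 20 min at RT.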
Potency means the concentration at half of the fitted maximal effect.

Sequence of UniProt P04062 (P04062 whole entry, looked up): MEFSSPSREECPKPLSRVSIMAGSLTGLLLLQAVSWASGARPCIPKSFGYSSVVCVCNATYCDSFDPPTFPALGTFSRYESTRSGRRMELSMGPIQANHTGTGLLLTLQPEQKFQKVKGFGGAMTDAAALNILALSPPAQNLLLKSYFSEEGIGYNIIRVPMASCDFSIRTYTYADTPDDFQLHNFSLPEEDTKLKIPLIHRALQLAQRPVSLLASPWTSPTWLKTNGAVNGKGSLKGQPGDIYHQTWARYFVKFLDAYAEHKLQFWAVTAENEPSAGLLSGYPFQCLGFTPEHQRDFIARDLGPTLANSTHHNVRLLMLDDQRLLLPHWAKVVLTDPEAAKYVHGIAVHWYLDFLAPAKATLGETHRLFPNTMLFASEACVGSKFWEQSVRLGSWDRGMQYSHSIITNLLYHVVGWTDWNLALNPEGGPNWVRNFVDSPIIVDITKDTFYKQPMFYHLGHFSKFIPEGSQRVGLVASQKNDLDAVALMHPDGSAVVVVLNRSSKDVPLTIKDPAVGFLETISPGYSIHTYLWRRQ

Q: How did the Potency turn out when `CC(C)Sc1nc2c(c(=O)[nH]c(=O)n2C)n1CCc1ccccc1` was run?
A: inactive: > 76.9 µM

Q: Which Potency does the source give for `O=C(Nc1nc2ccc(S(=O)(=O)N3CCCC3)cc2s1)C1CCCCC1` here?
A: inconclusive [decreasing]

Q: Which Potency does the source give for `Cc1nnc(NC(=O)C2CCCN(S(=O)(=O)c3ccccc3C(F)(F)F)C2)s1` (stereo not drawn) here?
A: inconclusive [decreasing]

Q: With `Cc1cccc(-c2noc(CN(C(=O)C34CC5CC(CC(C5)C3)C4)C(C)C)n2)c1` as the compound, how does the Potency read?
A: inconclusive [decreasing]

Q: With `N#Cc1nc(Cc2cccc3ccccc23)oc1NCCCn1ccnc1` as the compound, how does the Potency read?
A: active: 12.8 µM

Q: Which Potency does the source give for `CC1CCN(S(=O)(=O)N2CCC(C(=O)NCc3cccs3)CC2)CC1` here?
A: inactive: > 76.9 µM

Q: `C=CCNc1oc(-c2ccc(OC)cc2)nc1C#N` was tested. Which Potency did it give?
A: active: 15.3 µM

Q: How did the Potency turn out when `c1csc(-c2noc(COc3ccc4c(c3)CCCC4)n2)c1` was run?
A: inconclusive [increasing]

Q: Which Potency does the source give for `CCN(CC)S(=O)(=O)c1ccc(NC(=O)c2ccc(NS(C)(=O)=O)cc2)cc1` here?
A: inconclusive [decreasing]

Q: For `CCN(CCNC(=O)C1CCN(S(=O)(=O)c2cccc3nsnc23)CC1)c1ccccc1`, which Potency is on record?
A: inconclusive [decreasing]

Q: Which Potency does the source give for `O=C(Nc1ccccn1)C(NS(=O)(=O)c1cccc2nsnc12)c1ccccc1` (stereo not drawn) here?
A: inconclusive [decreasing]

Q: With `CCCCC(=O)NCCc1cc2c(OC)ccc(OC)c2[nH]c1=O` as the compound, how does the Potency read?
A: inactive: > 76.9 µM

Q: For `Cc1ccccc1NC(=O)c1ccccc1O`, which Potency is on record?
A: inconclusive [decreasing]

Q: With `O=C(Nc1ccc(N2CCOCC2)c(Cl)c1)c1ccco1` as the compound, how does the Potency read?
A: inactive: > 76.9 µM

Q: How did the Potency turn out when `CC1CCc2c(C(=O)NCCN3CCOCC3)csc2C1` (stereo not drawn) was run?
A: inconclusive [decreasing]

Q: `O=C(Nc1ccccc1)c1ccc2nc(-c3ccco3)c(-c3ccco3)nc2c1` was tested. Which Potency did it give?
A: inconclusive [decreasing]

Q: For `CCOC(=O)c1[nH]c2ccc(OCC)cc2c1NC(=O)CN1CCCC(C)C1` (stereo not drawn), which Potency is on record?
A: inactive: > 76.9 µM

Q: `Cn1c(SCCOc2ccccc2Cl)nnc1-c1ccncc1` was tested. Which Potency did it give?
A: inconclusive [decreasing]

Q: Which Potency does the source give for `O=C(Cn1c(=O)n(CC2CCCO2)c(=O)c2ccccc21)c1ccccc1` (stereo not drawn) here?
A: inactive: > 76.9 µM

Q: Which Potency does the source give for `Cc1ccc(NC2=CC(=O)CCC2)cc1C` here?
A: inconclusive [decreasing]

Q: `O=C(NCc1ccc(Cl)cc1)c1cc2c(nc3sccn32)s1` was tested. Which Potency did it give?
A: active: 8.26 µM

Q: `CCOc1ccc2nc(NCCNC(=O)C(C)C)c(C)cc2c1` was tested. Which Potency did it give?
A: inconclusive [decreasing]

Q: For `Cc1sc(NC(=O)c2ccccc2)c(C(=O)N2CCN(C)CC2)c1C`, which Potency is on record?
A: active: 11.8 µM

Q: How did the Potency turn out when `COc1ccc2cc(C(=O)N3CCCCCC3)sc(=O)c2c1OC` was run?
A: inconclusive [decreasing]

Q: Which Potency does the source give for `Cc1cccc(S(=O)(=O)c2c(N)n(/N=C/c3ccco3)c3nc4ccccc4nc23)c1` here?
A: active: 6.08 µM

Q: How did the Potency turn out when `Nc1nc(N)c2sc3nc4c(cc3c2n1)CCC4` was run?
A: inconclusive [decreasing]

Q: `O=C(O)CCSc1nc2ccccc2s1` was tested. Which Potency did it give?
A: inactive: > 76.9 µM

Q: How did the Potency turn out when `CCCCC(=O)OCC(=O)Nc1ccc(OC(F)F)cc1` was run?
A: inconclusive [decreasing]

Q: How did the Potency turn out when `O=C(NCCc1c[nH]c2ccccc12)C1CCN(c2nnc(N3CCCC3=O)s2)CC1` was run?
A: inconclusive [decreasing]

Q: With `Cc1cccn2c(=O)c3cc(C(=O)NCCCN4CCCC4=O)n(C)c3nc12` as the compound, how does the Potency read?
A: inactive: > 76.9 µM

Q: With `Cc1ccc2c(c1)c1ncnc(N3CCOCC3)c1n2C` as the compound, how does the Potency read?
A: inconclusive [decreasing]

Q: With `CS(=O)(=O)Nc1ccc(C(=O)NCCC2=CCCCC2)cc1` as the compound, how does the Potency read?
A: inconclusive [decreasing]

Q: `CCN1CCC(C(=O)NC2CCCC2)(N(Cc2cccs2)C(=O)Cn2nnc3ccccc32)CC1` was tested. Which Potency did it give?
A: inconclusive [decreasing]

Q: `CC(=O)Nc1ccc(S(=O)(=O)N2CCN(c3cc(C)nc4ccccc34)CC2)cc1` was tested. Which Potency did it give?
A: active: 10.7 µM

Q: Which Potency does the source give for `CCn1c(=N)n(CCOc2ccc(OC)cc2)c2ccccc21` here?
A: active: 6.9 µM

Q: Which Potency does the source give for `COc1ccc(N2CCN(C(CNS(=O)(=O)c3cc(F)ccc3F)c3cccnc3)CC2)cc1` (stereo not drawn) here?
A: inconclusive [decreasing]

Q: How did the Potency turn out when `CC1(C)CC(=O)c2sc(NC(=O)CN3CCOCC3)nc2C1` was run?
A: inactive: > 76.9 µM

Q: With `FC(F)C(F)(F)C1=CC(c2cccs2)=NCCN1` as the compound, how does the Potency read?
A: inconclusive [decreasing]

Q: `CCCS(=O)(=O)N1CCC(C(=O)c2cccc(C(F)(F)F)c2)CC1` was tested. Which Potency did it give?
A: inconclusive [decreasing]

Q: With `CCN1CCN(Cc2ccc(OCc3ccccc3)cc2)CC1` as the compound, how does the Potency read?
A: inconclusive [decreasing]

Q: For `O=C(NC1CCCCC1)N(Cc1ccc(F)cc1)Cc1nc2ccccc2c(=O)[nH]1`, which Potency is on record?
A: inconclusive [decreasing]

Q: For `O=C(CSc1nnc(Cc2cccs2)n1Cc1ccco1)Nc1ccc(Cl)cc1Cl`, which Potency is on record?
A: inconclusive [decreasing]

Q: Which Potency does the source give for `CSc1nc2nc(-c3ccccc3)cc(C(F)(F)F)n2n1` here?
A: active: 10.8 µM

Q: `COc1cc(CCC(=O)N2CCN(S(=O)(=O)c3ccc(C)c(C)c3)CC2)cc(OC)c1OC` was tested. Which Potency did it give?
A: inactive: > 76.9 µM

Q: How did the Potency turn out when `CC(=O)OCCNC(=O)Cn1cnc2c1c(=O)n(C)c(=O)n2C` was run?
A: inactive: > 76.9 µM

Q: How did the Potency turn out when `NC(=O)C1CCCN(C(=O)Nc2cccc3ccccc23)C1` (stereo not drawn) was run?
A: inactive: > 76.9 µM

Q: How did the Potency turn out when `Cc1ccc(NC(=O)Nc2ccc3c(c2)N(C)C(=O)CS3)nc1` was run?
A: inactive: > 76.9 µM

Q: For `Cc1nc(NCCCN2CCOCC2)c2oc3ccccc3c2n1`, which Potency is on record?
A: inactive: > 76.9 µM

Q: For `CCOC(=O)c1c(C)[nH]c(C(=O)COC(=O)C2CC(=O)N(Cc3ccccc3)C2)c1C` (stereo not drawn), which Potency is on record?
A: inconclusive [increasing]

Q: With `N#CCSc1nc2c(sc(=S)n2Cc2ccco2)c(=O)n1-c1ccc(F)cc1` as the compound, how does the Potency read?
A: active: 5.97 µM

Q: For `N#CC1(C#N)C2=C(CCCC2)NC(c2ccccc2)C1(C#N)C#N` (stereo not drawn), which Potency is on record?
A: inconclusive [decreasing]

Q: How did the Potency turn out when `NC(=O)C1CCN(S(=O)(=O)c2cccc(S(=O)(=O)N3CCCCC3)c2)CC1` was run?
A: inactive: > 76.9 µM

Q: `CCN1CCN(c2ncc(C(=O)Nc3ccccc3C(=O)OC)c3ccccc23)CC1` was tested. Which Potency did it give?
A: inconclusive [decreasing]

Q: `COc1ccc(C)cc1-n1nnnc1SCC(=O)NC(=O)NCc1ccco1` was tested. Which Potency did it give?
A: inconclusive [decreasing]

Q: Which Potency does the source give for `O=C(N1CCCC1)N1CCN(c2ncnc3c(-c4ccc(Cl)cc4)nsc23)CC1` here?
A: inactive: > 76.9 µM

Q: How did the Potency turn out when `NC(=O)CSc1nnnn1CC(CC(=O)O)c1ccccc1` (stereo not drawn) was run?
A: inconclusive [decreasing]

Q: `CN1CCN(c2nc(-c3ccccc3)c3cc(Cl)ccc3n2)CC1` was tested. Which Potency did it give?
A: inconclusive [decreasing]

Q: `Cc1cccn2cc(CNC(=O)CC3CCCC3)nc12` was tested. Which Potency did it give?
A: inactive: > 76.9 µM

Q: How did the Potency turn out when `CCCn1c(=N)n(CCOc2ccc(OC)cc2)c2ccccc21` was run?
A: active: 5.9 µM

Q: Which Potency does the source give for `CC(SCCc1ccccn1)C(=O)O` (stereo not drawn) here?
A: inactive: > 76.9 µM

Q: `Cc1cccc(N(C(=O)CCC(=O)Nc2ccccn2)C(C(=O)NC(C)C)c2ccc(O)cc2)c1` (stereo not drawn) was tested. Which Potency did it give?
A: inconclusive [decreasing]

Q: `Cc1ccc(-c2cc(C(=O)NCCN3CCOCC3)no2)cc1` was tested. Which Potency did it give?
A: inconclusive [decreasing]

Q: For `CCn1c(C)nc2cc(C(=O)OC(C(F)(F)C(F)F)C(F)(F)C(F)F)ccc21`, which Potency is on record?
A: inconclusive [decreasing]

Q: `CCc1nnc(NC(=O)CSc2nc3ccccc3s2)s1` was tested. Which Potency did it give?
A: inconclusive [decreasing]

Q: How did the Potency turn out when `C=CCN=C(NC#N)SCc1ccccc1Cl` was run?
A: inconclusive [decreasing]

Q: Which Potency does the source give for `O=C(COc1ccccc1)Nc1ccc(Cl)c(-c2nc3ncccc3o2)c1` here?
A: inactive: > 76.9 µM

Q: `O=C(c1ccccc1-c1nc(-c2ccc(Cl)cc2)no1)N1CCCC1` was tested. Which Potency did it give?
A: inactive: > 76.9 µM

Q: Which Potency does the source give for `COc1ccc(CNC(=O)C2CCN(C(=O)[C@@H](CC(C)C)NC(=O)OC(C)(C)C)CC2)cc1` here?
A: inconclusive [decreasing]

Q: For `Cc1nc2c(C)cccn2c1/C(O)=C1\C(=O)C(=O)N(CCN(C)C)C1c1ccncc1` (stereo not drawn), which Potency is on record?
A: inactive: > 76.9 µM

Q: Which Potency does the source give for `CCN(CC)S(=O)(=O)c1cccc(C(=O)Nc2nncs2)c1` here?
A: inconclusive [decreasing]

Q: How did the Potency turn out when `Cc1[nH]n(-c2ccccc2)c(=O)c1S(=O)(=O)c1ccccc1` was run?
A: inconclusive [decreasing]

Q: Which Potency does the source give for `Cc1ccc(Cn2nnc3c(=O)[nH]c(C4CCCN(C(=O)Nc5ccc(F)cc5)C4)nc32)cc1` (stereo not drawn) here?
A: inconclusive [decreasing]

Q: With `COc1ccc(CCNC(=O)CN2CCN(c3cccc(Cl)c3)CC2)cc1OC` as the compound, how does the Potency read?
A: inactive: > 76.9 µM

Q: For `O=C(Nc1ccc(OC(=O)c2cccnc2)cc1)c1cccnc1`, which Potency is on record?
A: inconclusive [decreasing]

Q: For `CCCn1c(C)cc(C(=O)COC(=O)c2ccc(Cl)c(S(=O)(=O)N3CCCC3)c2)c1C`, which Potency is on record?
A: inactive: > 76.9 µM

Q: `Cc1nnc(SC(C)C(=O)Nc2ccc(S(=O)(=O)N3CCCCCC3)cc2)s1` (stereo not drawn) was tested. Which Potency did it give?
A: inconclusive [decreasing]

Q: With `N#CC1=C(N)C(C#N)(C#N)C(c2ccc[nH]2)C2CCCC=C12` (stereo not drawn) as the compound, how does the Potency read?
A: inconclusive [decreasing]

Q: With `COc1ccc(S(=O)(=O)Nc2cc(C(=O)NC3CCCCCC3)ccc2N2CCOCC2)cc1` as the compound, how does the Potency read?
A: inconclusive [decreasing]
